Laboratory results reported in PubChem BioAssay AID686979 (National Center for Advancing Translational Sciences (NCATS), 2013).
Several values for one entry are separate records, joined by “and”; a condition that tells them apart may be missing. Equal entries are not always repeated. Screen size: about 420,000 compounds; about 50,000 (12%) were called active. The inconclusive results got no clear call from the source; some entries with a clear call stand among them for comparison. Calls follow the shape of the dose curve; as a rule, active = well fitted inhibition curve with a large enough effect; inconclusive = small, poorly fitted or top-dose-only effect; inactive = flat fitted curve, though single readings scatter. Potencies of inconclusive entries are left out as doubtful fits.

Assay: qHTS for Inhibitors of human tyrosyl-DNA phosphodiesterase 1 (TDP1): qHTS in cells in presence of CPT; also: nearly all actives have a fitted effect of over 55% in size
Conditions: chicken DT40 Tdp1-/-;hTDP1 cells + 20 nM CPT, ATP luminescence, 48 h; activity change, negative = growth inhibition: at 46.2 µM (top of the series)
In short: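 Chicken DT40 Tdp1-/- cells complemented with human TDP1, 400 cells/well, exposed to compounds plus 20 nM camptothecin for at least 48 h at 37 C; viability read as ATP content by CellTiter-Glo luminescence.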
% is scaled to controls: 0 for no effect and ±100 for the full control effect; potency is read from the fitted curve at half-maximal effect; tags tell the direction and shape of the fitted curve.

SMILES	Potency	activity change, negative = growth inhibition
Cc1cc(C)c2oc(-c3cccc(N)c3)nc2c1	inconclusive [inhibitor, single point]	–
C/C(=N\NC(=O)c1ccc(C)cc1C)c1ccc2c(c1)Nc1ccccc1S2	inconclusive [inhibitor, partial curve, poor fit]	–
O=C(c1cccnc1)N1CCN(S(=O)(=O)c2cccs2)CC1	–	inactive: -5.05%
COC(=O)c1ccc(CSc2nnc3nc(C)cc(C)n23)cc1	inconclusive [inhibitor, single point]	–
COc1cnc(-c2ccccc2)nc1Oc1ccc(Cl)cc1C	–	inactive: -4.12%
CC(C)CN(CC(C)C)c1nnc(NC(=O)Cn2c(=O)oc3ccccc32)s1	inconclusive [inhibitor, single point]	–
COc1cc(Br)c(-c2sc(Nc3ccccc3)n[n+]2-c2ccc(F)cc2)cc1OC	–	inactive: -1.16%
CN(C)c1nc(N)c(C(=O)N=C(N)N)nc1Cl	–	inactive: -26%
S=c1sc2ccccc2n1CCc1ccncc1	inconclusive [inhibitor, single point]	–
Cc1cccc(C)c1-n1nnnc1C(c1ccnc2ccccc12)N1CCN(c2ccccc2F)CC1 (stereo unspecified)	inconclusive [inhibitor, single point]	–
COc1ccc(N2CCN(S(=O)(=O)CCNC(=O)COc3ccc(Cl)cc3)CC2)cc1	inconclusive [inhibitor, partial curve, poor fit]	–
CCOc1ccc(CN2C(=O)c3ccccc3Sc3ccc(C(=O)NC)cc32)cc1	inconclusive [inhibitor, single point]	–
Cc1ccc(C)c(OCC(O)CN2CCCCC2C)c1 (stereo unspecified)	–	inactive: -19.6%
CCC(O)(Cc1ccccn1)Cc1ccccn1	–	inactive: 14.9%
CN(CC(=O)Nc1c(Cl)cccc1Cl)C(=O)CNC(=O)c1ccc2c(c1)OCO2	inconclusive [inhibitor, single point]	–
COc1ccc(NC(=O)C(=O)c2cn(CC(=O)N3CCOCC3)c3ccccc23)cc1OC	inconclusive [inhibitor, single point]	–
Cc1ccc(SCCC(=O)N2CCN(S(=O)(=O)c3ccccc3)CC2)cc1	inconclusive [inhibitor, single point]	–
COc1cc(/C=C/c2onc(C)c2[N+](=O)[O-])cc(OC)c1OC	–	inactive: 6.83%
COc1ccc(NC(=O)CN2C(=O)C(C)Oc3ccccc32)c(OC)c1 (stereo unspecified)	–	inactive: -9.21%
O=c1oc2ccc(C#CC3(O)CCCCC3)cc2cc1-n1cc(-c2ccsc2)nn1	inconclusive [inhibitor, single point]	–
O=C(c1ccccc1)N1CCSC1=S	inconclusive [inhibitor, single point]	–
COc1cc2c(cc1OC)C(=O)C(c1ccc3c(c1)OCO3)CC2 (stereo unspecified)	–	inconclusive: -30.4% [inhibitor]
Clc1ccc2c(c1)[C@H]1OCC[C@H]1[C@@H](c1ccco1)N2	–	inactive: -78.3%
Cc1c(CCC(C)C)c(=O)n2c([nH]c3ccccc32)c1C#N	inconclusive [inhibitor, single point]	–

SMILES	Potency	activity change, negative = growth inhibition
CCC(=O)N1CCN(c2ccccc2NC(=O)COc2cc(C)ccc2C(C)C)CC1	active: 16.4 µM	–
Cc1ccc(C(C)C)c(OCC(=O)NNC(=O)Cc2ccc(S(=O)(=O)N3CCOCC3)s2)c1	–	inactive: 5.56%
O=C(CO/N=C/c1ccccc1OC(F)F)N1CCc2ccccc21	–	inactive: -3.11%
O=C(c1ccccc1)C1CCN(C(=O)c2ccc(Cl)cc2)CC1	inconclusive [inhibitor, single point]	–
CC1(C)C(=O)NCCN1C(=O)CSc1nccc(-c2ccc(Br)cc2)n1	inconclusive [inhibitor, partial curve]	–
O=C(CN1CCN(c2ccc(F)cc2)CC1)Nc1ccccc1C(=O)NCCc1ccccc1	inconclusive [inhibitor, single point]	–
CC1CN(c2cc3nccnc3cc2F)CC(C)O1 (stereo unspecified)	inconclusive [inhibitor, partial curve]	–
CCc1ccc(CNC(=O)COc2cc(=O)n(CC)c3ccccc23)cc1	inconclusive [inhibitor, single point]	–
O=C1[C@H](Cc2ccccc2)NCCCC[C@H](c2ccco2)N1Cc1ccccc1	active: 5.01 µM and active: 13 µM	–
CCOC(=O)C(=CNc1cc(C)nn1-c1ccc(Cl)cc1)C(=O)OCC	active: 23.1 µM	–
Cc1cc(Cl)ccc1OCC(=O)NNC(=O)c1ccco1	–	inactive: -5.87%
O=C(/C=C/c1ccccc1)N(c1ccccn1)C1CCCCC1	inconclusive [inhibitor, single point]	–
CCc1ccc(CNC(=O)C2CCC(=O)N(CCc3ccc(Cl)cc3)C2)nc1 (stereo unspecified)	inconclusive [inhibitor, single point]	–
Cc1ccc(-c2noc(-c3ccc(NCc4ccco4)c([N+](=O)[O-])c3)n2)cc1	–	inactive: -9.17%
CC(C)C[C@@H](CN1CCC[C@H]1CN1C(=O)C(=O)NC[C@@H]1Cc1ccccc1)N1C[C@H](Cc2ccc(O)cc2)N(CC2CCCCCC2)C(=O)C1=O	active: 23.1 µM	–
O=C(c1ccccc1)N1CCN=C1SCc1ccc([N+](=O)[O-])cc1	inconclusive [inhibitor, partial curve]	–
CC1CCC(NC(=O)CN2CCC(n3nnc4cc(F)ccc43)CC2)CC1 (stereo unspecified)	inconclusive [inhibitor, single point]	–
COc1cccc(CNc2nc3cc(-c4ccsc4)sc3c(=O)n2C)c1OC	inconclusive [inhibitor, single point]	–
COc1cc(C2CC(=O)c3c([nH]c(C(=O)OCC4CCCCC4)c3C)C2)cc(OC)c1OC (stereo unspecified)	active: 1.3 µM	–
Cc1ccc(S(=O)(=O)c2c(C)c(C)c(C)[nH]c2=O)cc1	–	inactive: -25.7%
O=C(CSc1nc2ccccc2o1)N/N=C/c1ccccc1	–	inactive: -19.7%
COC1CCCN(C(=O)c2ccc3oc(Cc4ccc(Cl)cc4)nc3c2)C1 (stereo unspecified)	–	inactive: -17.4%
CC1(C(=O)NCc2ccc(C(F)(F)F)cc2)CCN1Cc1ccccc1OC(F)F (stereo unspecified)	inconclusive [inhibitor, single point]	–
C/C=C\C(=O)Nc1cccc(C2=NOC3(C2)C[C@@H](C(N)=O)N(C(=O)c2ccccc2)C3)c1 (stereo partly specified)	–	inactive: -30.1%

SMILES	Potency	activity change, negative = growth inhibition
CC1=C(c2ccc(F)cc2)S(=O)(=O)NC1=NCc1ccccc1F	inconclusive [inhibitor, single point]	–
O=S(=O)(c1ccccc1)N1CCC2(CCCN(c3ccccn3)C2)CC1	inconclusive [inhibitor, single point]	–
COCCn1c(=O)c(CCc2ccccc2)nc2cnc(OCc3ccccc3)nc21	inconclusive [inhibitor, single point]	–
CCc1nn2c(=O)cc(COC(=O)c3ccc(NC(=O)c4cccs4)cc3)nc2s1	active: 6.51 µM	–
Nc1ccc2c(c1)C(=NO)c1cc([N+](=O)[O-])ccc1-2	active: 0.58 µM	–
C#CCN(C[C@@H]1[C@@H](OC(=O)NC2CC2)[C@@H](OC(=O)NC2CC2)Cn2c(=O)ccc(=O)n21)S(=O)(=O)c1ccc(C)cc1	inconclusive [inhibitor, single point]	–
Cc1cc(C)cc(NC(=O)[C@H](NC(=O)[C@@H]2Cc3ccccc3CN2)c2ccccc2)c1	inconclusive [inhibitor, single point]	–
O=C(N/N=C/c1cc([N+](=O)[O-])ccc1O)/C(=C\c1cccs1)NC(=O)c1ccccc1	inconclusive [inhibitor, single point]	–
COc1ccccc1CNC(=O)COC(=O)COc1ccccc1Cc1ccccc1	–	inactive: 7.13%
CCCCN(C)C(=O)C1CCC(CNS(=O)(=O)c2ccc3c(c2)CC(C)N3C(=O)C2CC2)CC1 (stereo unspecified)	active: 10.3 µM	–
Cc1noc(C)c1-c1nccc(N2CCN(C)CC2)n1	–	inactive: -28.3%
Cc1ccc(S(=O)(=O)N2CCOC23CCN(S(=O)(=O)c2c(C)cc(C)cc2C)CC3)cc1	active: 18.4 µM	–
O=C(O)CCC1OC(=O)C(O)=C1c1ccccc1 (stereo unspecified)	–	inactive: 1.46%
COc1ccccc1C(=O)Nc1nc2nc(-c3ccccc3)cc(=O)n2[nH]1	inconclusive [inhibitor, single point]	–
O=C1Nc2ccccc2/C1=C/c1ccccc1F	inconclusive [inhibitor, single point]	–
COc1ccc(CN2CCc3nnc(CNC(=O)c4cc(C)oc4C)n3CC2)c2ccccc12	inconclusive [inhibitor, single point]	–
C=C1C(=O)[C@]23C[C@H]1CCC2[C@@]1(C)C(C[C@@H]3O)[C@](C)(C(=O)O)CC[C@@H]1O (stereo partly specified)	active: 1.84 µM	–
Cc1ccccc1NS(=O)(=O)c1ccc2[nH]cc(C(=O)NC(C)c3ccccc3)c(=O)c2c1 (stereo unspecified)	inconclusive [inhibitor, single point]	–
N#CCNC1CC(=O)N(c2ccc(F)cc2)C1=O (stereo unspecified)	active: 4.61 µM	–
COC(=O)C1CN(S(=O)(=O)c2ccc(C)cc2)CCN1S(=O)(=O)c1ccc(C)cc1 (stereo unspecified)	inconclusive [inhibitor, partial curve, poor fit]	–
COc1cc(=O)n2c(c1C(=O)NCc1ccc3c(c1)OCO3)CCN(C(=O)c1ccccc1F)CC2	–	inactive: 4.18%
Cc1nc2ccccc2c2oc(C(=O)N3CC(C)CC(C)C3)cc12 (stereo unspecified)	inconclusive [inhibitor, single point]	–
COc1ccccc1CCNC(=O)C(=O)NCC(c1cccs1)S(=O)(=O)c1ccc(C)cc1 (stereo unspecified)	active: 14.6 µM	–
